# Inconclusive results, whose numbers are uncertain, are shown with a selection of clear calls. No potency is given beside an inconclusive call; the fits are too rough. Activity calls are given as the source filed them. Calls follow the shape of the dose curve; as a rule, active = well fitted inhibition curve with a large enough effect; inconclusive = small, poorly fitted or top-dose-only effect; inactive = no such curve, though single readings can be large or run the other way.
# Target: Retinal dehydrogenase 2 (Homo sapiens) (UniProt O94788)
# Assay: qHTS for Inhibitors of the Aldehyde Dehydrogenase Family (ALDH1A2) Confirmation screens (AID 2061314); also: nearly all actives have a fitted effect of over 65% in size
# Conditions: ALDH1A2 enzyme inhibition qHTS confirmation; activity, negative = inhibition: at 45.9 µM (top of the series) unless noted; series mostly up to 45.9 µM
# % is scaled to controls: 0 for no effect and ±100 for the full control effect; potency is read from the fitted curve at half-maximal effect; tags tell the direction and shape of the fitted curve.
SMILES,Potency,"activity, negative = inhibition",outcome
CC(C)(C)c1ccc(SC2=NS(=O)(=O)c3ccccc32)cc1,active: 12.7 µM,–,–
COc1ccc(C2=NN(CC(=O)NCCc3ccc(OC)c(OC)c3)C(=O)CC2)cc1,–,inactive: -2.35%,–
CCOC(=O)Cn1c(=O)oc2cc(S(=O)(=O)N3CCN(c4ccc(Cl)cc4)CC3)ccc21,"inconclusive [inhibitor, partial curve]",–,–
COc1cccc(C2c3c(ncn(-c4ccccc4C#N)c3=N)Oc3ccc4ccccc4c32)c1 (centres undefined),"inconclusive [inhibitor, partial curve]",–,–
Cc1ccc2nc3sc(C(=O)N4CCCCC4)cc3cc2c1,"inconclusive [inhibitor, full curve, poor fit]",–,–
COc1ccc(NC(=O)Nc2ccc(-c3nc4ccccc4[nH]3)cc2)cc1OC,"inconclusive [inhibitor, partial curve]",–,–
CCOC(=O)Cn1c(=O)oc2cc(S(=O)(=O)N3CCN(c4ccc(C(C)=O)cc4)CC3)ccc21,–,inactive: -4.64%,–
Clc1ncoc1-c1c[nH]c2ccccc12,–,inactive: -17.8%,–
N#CNC(=O)c1ccc(-n2cccc2/C=C2\NC(=O)N(CC(=O)Nc3cccc(F)c3)C2=O)cc1,"inconclusive [inhibitor, full curve, poor fit]",–,–
COc1ccc(C2Nc3ccccc3C(=O)N2Cc2ccc(C(F)(F)F)cc2)cc1COc1ccc(NC(C)=O)cc1 (centres undefined),"inconclusive [inhibitor, full curve, poor fit]",–,–
CN1C(=O)Cc2cc([S+](=O)([O-])N3CCN([S+](=O)([O-])c4c(F)cccc4F)CC3)ccc21,"inconclusive [inhibitor, partial curve, poor fit]",–,–
Cc1cccc(OC2=NS(=O)(=O)c3ccccc32)c1,–,inactive: -6.4%,–
Cc1cnc(-c2ccccc2N(C)C)nc1NCc1ccc(-c2cccnc2)cc1,"inconclusive [inhibitor, partial curve, poor fit]",–,–
CC(C)(Nc1nc(-c2ccccc2C(F)(F)F)nc2ccccc12)c1ccc(-c2cccc(C(F)(F)F)c2)cc1,"inconclusive [inhibitor, partial curve]",–,–
COc1ccc(C2Nc3ccccc3C(=O)N2Cc2ccc(-c3ccccc3)cc2)cc1COc1ccc(NC(C)=O)cc1 (centres undefined),"inconclusive [inhibitor, partial curve]",–,–
Cc1ccc(-c2ccc(C=O)cc2)c(C)c1,active: 12.6 µM,–,–
CC(=O)Nc1sc2c(c1-c1cc3ccccc3[nH]1)CCNC2,active: 28.3 µM,–,–
C/C(=C\c1cccc(C(F)(F)F)c1)C1Nc2cccc3cccc(c23)N1,"inconclusive [inhibitor, partial curve]",–,–
Cc1ccc(C(=O)N2CCC(CCC(=O)N3CCCCC3)CC2)cc1,–,inactive: -5.26%,–
CC(=O)Nc1sc2c(c1-c1cnn(C(C)=O)c1)CCNC2,–,inactive: -8.28%,–

SMILES,Potency,"activity, negative = inhibition",outcome
O=C(C(NS(=O)(=O)c1ccc2[nH]c(=O)ccc2c1)c1cccc(C(F)(F)F)c1)N(Cc1ccco1)Cc1cccs1 (centres undefined),active: 12.7 µM,–,–
COc1ccc(C2=Nn3c(nnc3-c3cccc(OC)c3)SC2)cc1,–,–,inactive
CNS(=O)(=O)c1ccc(Cc2c(-c3cccc(-c4ccccc4)c3)[nH]n(-c3nc(C(=O)O)cs3)c2=O)cc1,"inconclusive [inhibitor, partial curve, poor fit]",–,–
Cc1cnc(-c2ccccc2C(C)O)nc1NCC1CCN(c2cccnc2)CC1 (centres undefined),active: 12.7 µM,–,–
O=C(C1CCN(Cc2ccccc2-c2ccccc2F)CC1)N1CCC(Cc2ccccc2)CC1,–,inactive: -9.01%,–
Cc1ccc(-c2cnn(CC(=O)NCCc3ccccc3)c(=O)c2)cc1,"inconclusive [inhibitor, partial curve]",–,–
CC(C)(C)OC(=O)N[C@@H](Cc1ccc(O[S+](=O)([O-])c2cccnc2)cc1)C(=O)N1CCN(c2ccccc2)CC1,active: 15.9 µM,–,–
O=C(c1ccco1)N1CCN(c2nc(-c3ccc(Br)cc3)cs2)CC1,–,inactive: 37.7%,–
COc1ccc(-n2c(C)c(C(C)=O)c3ccccc32)cc1,–,inactive: -27.3%,–
Cc1nnc(CN(C)c2ncnc3ccc(-c4ccc5c(c4)OCO5)cc23)o1,"inconclusive [inhibitor, partial curve]",–,–
Cc1cc(C=CC#N)cc(C)c1Nc1nc(Nc2ccc3c(c2)CCC3)c2[nH]cnc2n1,–,inactive: -16.2%,–
NC(=O)C1CCN(c2nc(-c3ccc([N+](=O)[O-])cc3)cs2)CC1,active: 3.18 µM,–,–
N[C@@H]1CCN(c2cnc3c(O)ccc(C(=O)O)c3c2)C1,active: 25.2 µM,–,–
CCN(CC)C(=O)CC(c1ccc2c(c1)OCO2)c1c(O)cc(OC)cc1OC (centres undefined),–,inactive: -7.42% [at 86.5 µM],–
O=C(CCC1CCCN(S(=O)(=O)c2ccccc2F)C1)NCCCN1CCOCC1 (centres undefined),–,inactive: -12.6%,–
Cc1ccc(S(=O)(=O)Nc2cccc3ccc[n+](C)c23)cc1,active: 25.2 µM,–,–
N#Cc1nc(Nc2cccc([N+](=O)[O-])c2)nc(NC2CCCC2)n1,active: 6.34 µM,–,–
Cc1ccc(NC(=O)CN2C(=O)N/C(=C\c3ccco3)C2=O)cc1,"inconclusive [inhibitor, partial curve, poor fit]",–,–
Cc1ccc(NS(=O)(=O)c2cc3c(cc2N2CCC2)NC(=O)CC3)cc1C,active: 22.5 µM,–,–

# Source: PubChem BioAssay (NCATS)
